Results reported in the supplement of paper PMC4604168 (melanoma cell lines).
This is one part of the list. Many values rest on one well or one pass, so single values are uncertain.

These molecules were tested on IPC-298 (assay: cell count relative to DMSO control; melanoma cells; higher = more viable cells). Settings: library dose: standard library concentration; 72 h.
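Further: cells treated in 1,536-well plates, then fixed and DAPI-stained, with nuclei counted from automated high-throughput microscope images.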

Compound	cell count [%]
Clc1ccc(Nc2nnc(Cc3ccncc3)c3ccccc23)cc1 [vatalanib] + OCCn1cc(-c2cnc3nnn(Cc4ccc5ncccc5c4)c3n2)cn1 [PF04217903] (first compound 10 µM, partner dose 5 µM)	83.9
Nc1cccc2c1CN(C1CCC(=O)NC1=O)C2=O (stereo not given) [lenalidomide] + COc1ccc2c(c1)CCC1C2CCC2(C)C(NCCCCCCN3C(=O)C=CC3=O)CCC12 [U73122] (first compound 5 µM, partner dose 2 µM)	99.6
Cn1c(Nc2ccc(C(F)(F)F)cc2)nc2cc(Oc3ccnc(-c4ncc(C(F)(F)F)[nH]4)c3)ccc21 + COc1cc(N2CCC(N3CCN(C)CC3)CC2)ccc1Nc1ncc(Cl)c(Nc2ccccc2S(=O)(=O)C(C)C)n1 [NVP-TAE684] (first compound 0.4 µM, partner dose 0.4 µM)	48
C#Cc1cccc(Nc2ncnc3cc(OCCOC)c(OCCOC)cc23)c1 [erlotinib] + COc1cc2ncnc(Nc3ccc(Oc4ccccc4)cc3)c2cc1OC [SrcI1] (first compound 4 µM, partner dose 10 µM)	53.8
C#Cc1cccc(Nc2ncnc3cc(OCCOC)c(OCCOC)cc23)c1 [erlotinib] + Cc1cc([N+](=O)[O-])ccc1NS(=O)(=O)c1cc(Cl)ccc1Cl [FH535] (first compound 4 µM, partner dose 5 µM)	48.9
OCc1c[nH]c2ccccc12 [Indole-3-carbinol] + C#Cc1cccc(Nc2ncnc3cc(OCCOC)c(OCCOC)cc23)c1 [erlotinib] (first compound 4 µM, partner dose 4 µM)	59.3
Clc1ccc(Nc2nnc(Cc3ccncc3)c3ccccc23)cc1 [vatalanib] + O=C(O)c1ccc(-c2c[nH]c3ncc(-c4ccccc4)cc23)cc1C1CCCC1 [GSK650394] (first compound 10 µM, partner dose 0.8 µM)	67
Cn1c(Nc2ccc(C(F)(F)F)cc2)nc2cc(Oc3ccnc(-c4ncc(C(F)(F)F)[nH]4)c3)ccc21 + CO[C@@H]1[C@H](N(C)C(=O)c2ccccc2)C[C@H]2O[C@]1(C)n1c3ccccc3c3c4c(c5c6ccccc6n2c5c31)C(=O)NC4 [Midostaurin] (first compound 0.4 µM, partner dose 0.4 µM)	50
Clc1ccc(Nc2nnc(Cc3ccncc3)c3ccccc23)cc1 [vatalanib] + COCC[n+]1c2c(n(Cc3cnccn3)c1C)C(=O)c1ccccc1C2=O [YM155] (first compound 10 µM, partner dose 0.002 µM)	58.7
Cn1c(Nc2ccc(C(F)(F)F)cc2)nc2cc(Oc3ccnc(-c4ncc(C(F)(F)F)[nH]4)c3)ccc21 + O=C(O)C(=O)Nc1sc2c(c1C(=O)O)CCNC2 [TCS401] (first compound 0.4 µM, partner dose 8.33333 µM)	46.7
O=C(CCCCCCC(=O)Nc1ccccc1)NO [vorinostat] + COc1cc(Nc2ncc(F)c(Nc3ccc4c(n3)NC(=O)C(C)(C)O4)n2)cc(OC)c1OC [Tamatinib] (first compound 0.4 µM, partner dose 2 µM)	74.1
O=C(CCCCCCC(=O)Nc1ccccc1)NO [vorinostat] + N#Cc1c(O)c2c(-c3ccc(-c4ccccc4O)cc3)csc2[nH]c1=O [A769662] (first compound 0.4 µM, partner dose 10 µM)	76.1
Nc1cccc2c1CN(C1CCC(=O)NC1=O)C2=O (stereo not given) [lenalidomide] + Cn1cc(/C=C2\C(=O)Nc3cccnc32)c2ccccc21 [GW441756] (first compound 5 µM, partner dose 2 µM)	84.5
Clc1ccc(Nc2nnc(Cc3ccncc3)c3ccccc23)cc1 [vatalanib] + C=CCn1c(=O)c2cnc(Nc3ccc(N4CCN(C)CC4)cc3)nc2n1-c1cccc(C(C)(C)O)n1 [MK1775] (first compound 10 µM, partner dose 0.1 µM)	61.1
COCC[n+]1c2c(n(Cc3cnccn3)c1C)C(=O)c1ccccc1C2=O + O=c1cc(-c2cccc3c2Sc2ccccc2S3)oc(N2CCOCC2)c1 [KU55933] (first compound 0.002 µM, partner dose 5 µM)	42.5
